IC50 is the fitted dose that halves viability relative to control wells, and lower means more sensitive; a limit (>, <) means that the fit lies beyond the doses tested. AUC is the area under the same curve over the 256-fold range up to the top dose, as a fraction: 1 means no effect, lower means more sensitive. Any top dose called inferred is not printed in the source and was worked back from the curve model.
Experiments:
Experiment in all cases: Viability of human cancer cell lines after 72 h of drug (GDSC screen)
[1] = compound: COc1cc(C)c(Sc2cnc(NC(=O)c3ccc(CNC(C)C(C)(C)C)cc3)s2)cc1C(=O)N1CCN(C(C)=O)CC1 [BMS-509744]; conditions: top dose 10.24 µM; top dose inferred
Description: (§1)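 Human cancer cell lines in 384-well plates, medium with 10% serum, drug for 72 h over a 256-fold dose range (nine 2-fold or five 4-fold steps up to the top dose). Adherent lines were fixed and stained with the nucleic acid dye Syto60, suspension lines read with resazurin; signal relative to control wells, capped at 0 and 100%. One two-parameter sigmoid per drug and line, fitted in a mixed model over all curves with the slope shared within a line.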

[2] = compound: COc1ccccc1S(=O)(=O)Nc1ccc2c(c1)CN(C)C(=O)N2 [PFI-1]; conditions: top dose 10 µM; top dose inferred
Description: as §1

[3] = compound: CCN1CCN(Cc2ccc(NC(=O)c3ccc(C)c(Oc4ccnc5[nH]ccc45)c3)cc2C(F)(F)F)CC1 [NG-25]; conditions: top dose 10.24 µM; top dose inferred
Description: as §1

[4] = compound: CCc1cc(Nc2nccc(-c3c(-c4ccc(OC)c(C(=O)Nc5c(F)cccc5F)c4)nc4ccccn34)n2)c(OC)cc1N1CCC(N2CCN(S(C)(=O)=O)CC2)CC1 [GSK-1904529A]; conditions: top dose 1.024 µM; top dose inferred
Description: as §1

[5] = compound: Cn1cncc1[C@@](N)(c1ccc(Cl)cc1)c1ccc2c(c1)c(-c1cccc(Cl)c1)cc(=O)n2C [Tipifarnib]; conditions: top dose 16 µM; top dose inferred
Description: as §1

Row | Cell Line | AUC [1] | IC50 [1] [µM] | AUC [2] | IC50 [2] [µM] | AUC [3] | IC50 [3] [µM] | AUC [4] | IC50 [4] [nM] | AUC [5] | IC50 [5] [nM]
1 | SK-PN-DW (Ewing sarcoma, adherent) | 0.88 | > 10.2 | 0.928 | > 10 | 0.752 | 3.5 | 0.973 | > 1020 | 0.666 | 2950
2 | A4-Fuk (B-cell lymphoma, suspension) | 0.638 | 1.57 | 0.774 | 4.08 | 0.862 | 9.37 | 0.979 | > 1020 | 0.271 | 215
3 | SF126 (glioma, adherent) | 0.98 | > 10.2 | 0.835 | 7.07 | 0.96 | > 10.2 | 0.974 | > 1020 | 0.64 | 2490
4 | P30-OHK (lymphoblastic leukaemia, suspension) | 0.958 | > 10.2 | 0.604 | 1.15 | 0.424 | 0.413 | 0.983 | > 1020 | 0.309 | 323
5 | HCC2218 (breast, suspension) | 0.925 | > 10.2 | 0.892 | > 10 | 0.869 | > 10.2 | 0.982 | > 1020 | 0.8 | 10100
6 | NCI-H322M (lung adenocarcinoma, suspension) | 0.935 | > 10.2 | 0.973 | > 10 | 0.865 | > 10.2 | 0.986 | > 1020 | 0.987 | > 16000
7 | NCI-H526 (small cell lung carcinoma, suspension) | 0.949 | > 10.2 | 0.98 | > 10 | 0.933 | > 10.2 | 0.99 | > 1020 | 0.863 | 12900
8 | KARPAS-620 (haematopoietic neoplasm, suspension) | 0.742 | 2.78 | 0.768 | 3.24 | 0.245 | 0.135 | 0.982 | > 1020 | 0.435 | 681
9 | KG-1 (acute myeloid leukaemia, suspension) | 0.967 | > 10.2 | 0.771 | 3.44 | 0.464 | 0.515 | 0.989 | > 1020 | 0.683 | –
10 | BB65-RCC (kidney, adherent) | 0.932 | > 10.2 | 0.899 | > 10 | 0.869 | > 10.2 | 0.975 | > 1020 | 0.606 | 2050
11 | SK-LMS-1 (soft tissue, adherent) | 0.897 | > 10.2 | 0.778 | 3.85 | 0.804 | 4.83 | 0.987 | > 1020 | 0.261 | 216
12 | NB7 (neuroblastoma, adherent) | 0.94 | > 10.2 | 0.778 | 4.25 | 0.842 | 7.64 | 0.986 | > 1020 | 0.344 | 362
13 | ARH-77 (myeloma, suspension) | 0.972 | > 10.2 | 0.848 | 7.01 | 0.68 | 1.99 | 0.988 | > 1020 | 0.941 | > 16000
14 | KARPAS-45 (lymphoblastic leukaemia, suspension) | 0.869 | 6.87 | 0.823 | 4.64 | 0.517 | 0.708 | 0.992 | > 1020 | 0.719 | 3670
15 | ES8 (Ewing sarcoma, adherent) | 0.796 | 4.39 | 0.883 | 9.35 | 0.747 | 3.07 | 0.982 | > 1020 | 0.72 | 3980
16 | DMS-79 (small cell lung carcinoma, suspension) | 0.985 | > 10.2 | 0.985 | > 10 | 0.927 | > 10.2 | 0.987 | > 1020 | 0.931 | > 16000
17 | COLO-320-HSR (large intestine, suspension) | 0.912 | > 10.2 | 0.976 | > 10 | 0.818 | 4.81 | 0.992 | > 1020 | 0.829 | 8210
18 | LB2241-RCC (kidney, adherent) | 0.957 | > 10.2 | 0.826 | 7.07 | 0.962 | > 10.2 | 0.966 | > 1020 | 0.684 | 3500
19 | NCI-SNU-16 (stomach, suspension) | 0.902 | > 10.2 | 0.797 | 4.1 | 0.986 | > 10.2 | 0.991 | > 1020 | 0.985 | > 16000
20 | HD-MY-Z (Hodgkin lymphoma, adherent) | 0.886 | > 10.2 | 0.862 | 8.65 | 0.806 | 5.26 | 0.985 | > 1020 | 0.944 | > 16000
21 | LB2518-MEL (melanoma, adherent) | 0.913 | > 10.2 | 0.927 | > 10 | 0.966 | > 10.2 | 0.986 | > 1020 | 0.573 | 1600
22 | KCL-22 (chronic myeloid leukaemia, suspension) | 0.949 | > 10.2 | 0.855 | 6.06 | 0.026 | < 0.04 | 0.991 | > 1020 | 0.761 | 4840
23 | ALL-PO (lymphoblastic leukaemia, suspension) | 0.801 | 5.32 | 0.972 | > 10 | 0.292 | 0.16 | 0.951 | > 1020 | 0.393 | 499
24 | SNU-C1 (large intestine, suspension) | 0.898 | > 10.2 | 0.871 | > 10 | 0.975 | > 10.2 | 0.974 | > 1020 | 0.975 | > 16000
25 | LS-411N (large intestine, adherent) | 0.766 | 4.59 | 0.847 | 9.89 | 0.882 | > 10.2 | 0.955 | > 1020 | 0.517 | 1120
